According to article PMC4336329 (PLoS ONE, 2015):
The whole screen tested about 310,000 compounds, of which about 2,200 (0.71%) showed an effect of 50% or more. Effects have a minus sign here. The list shows a part of the results.

Target: human ether-à-go-go-related gene (hERG) potassium channel (human, UniProt Q12809)
Assay: primary screen, population patch clamp on CHO cells stably expressing hERG

human ether-à-go-go-related gene (hERG) potassium channel, sequence (Q12809 whole entry, looked up): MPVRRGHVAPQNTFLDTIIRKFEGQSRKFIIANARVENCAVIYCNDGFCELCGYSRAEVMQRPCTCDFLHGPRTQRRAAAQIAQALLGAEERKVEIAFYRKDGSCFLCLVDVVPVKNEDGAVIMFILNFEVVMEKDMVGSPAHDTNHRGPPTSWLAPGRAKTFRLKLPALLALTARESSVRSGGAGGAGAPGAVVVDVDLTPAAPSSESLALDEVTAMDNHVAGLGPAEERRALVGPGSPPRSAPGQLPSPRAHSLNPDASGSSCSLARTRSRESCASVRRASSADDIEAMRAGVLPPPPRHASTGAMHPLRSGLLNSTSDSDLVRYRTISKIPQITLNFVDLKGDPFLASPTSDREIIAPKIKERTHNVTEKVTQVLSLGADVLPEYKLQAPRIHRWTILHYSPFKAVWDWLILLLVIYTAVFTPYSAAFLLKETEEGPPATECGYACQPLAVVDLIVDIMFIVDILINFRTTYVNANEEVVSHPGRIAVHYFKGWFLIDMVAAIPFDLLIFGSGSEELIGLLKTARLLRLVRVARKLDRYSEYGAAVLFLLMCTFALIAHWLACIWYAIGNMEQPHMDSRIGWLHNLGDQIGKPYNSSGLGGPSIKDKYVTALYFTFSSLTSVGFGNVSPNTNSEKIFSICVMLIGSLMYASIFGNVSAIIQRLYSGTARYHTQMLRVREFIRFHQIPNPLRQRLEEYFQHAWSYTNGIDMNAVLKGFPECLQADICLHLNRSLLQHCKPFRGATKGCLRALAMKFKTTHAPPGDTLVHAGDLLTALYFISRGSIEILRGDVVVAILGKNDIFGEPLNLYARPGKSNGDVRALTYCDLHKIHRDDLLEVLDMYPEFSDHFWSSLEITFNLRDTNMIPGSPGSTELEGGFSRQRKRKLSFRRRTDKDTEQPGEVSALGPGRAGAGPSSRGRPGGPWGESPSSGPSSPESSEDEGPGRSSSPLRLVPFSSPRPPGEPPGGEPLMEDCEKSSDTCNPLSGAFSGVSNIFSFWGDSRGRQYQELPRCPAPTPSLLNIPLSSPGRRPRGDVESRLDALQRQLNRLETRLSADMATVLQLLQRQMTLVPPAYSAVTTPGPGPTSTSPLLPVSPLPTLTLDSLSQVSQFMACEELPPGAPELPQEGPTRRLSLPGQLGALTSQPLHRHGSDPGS

Compound	hERG current change (%, negative = inhibition) at 1uM [%]
CCOC(=O)C1CCCCN1Cc1cccc(Oc2ccccc2)c1 (centres unmarked)	9.41
N#Cc1c(NC(=O)CSc2nc(N)cc(=O)[nH]2)sc2c1CCCC2	15.3
O=C(Nc1cc(Cl)ccc1-n1cncn1)c1cccc(S(=O)(=O)N2CCOCC2)c1	-12.7
COCCN1C(=O)c2ccc(C(=O)NCc3cccnc3)cc2C1=O	13.6
CC(=O)c1c(C)[nH]c(C(=O)NCCCN2CCCC2)c1C	6.58
COc1ccc(Cn2nnnc2C(c2cc3cc(C)cc(C)c3[nH]c2=O)N2CCOCC2)cc1 (centres unmarked)	-9.84
C=CCN(CC=C)C(=O)c1cccc(S(=O)(=O)N2c3ccccc3CC2C)c1 (centres unmarked)	9.6
Cc1noc(C)c1CSCC(=O)Nc1nnc(CC(C)C)s1	-9.51
Cc1ccc(S(=O)(=O)N2CCOC2CNC(=O)C(=O)NCc2ccc3c(c2)OCO3)cc1 (centres unmarked)	9.31
COc1ccc(C(=O)NC(=S)Nc2nnn(C)n2)cc1	7.5
Cc1ccc(OCC(=O)c2c(N)n(C)c(=O)n(C)c2=O)c([N+](=O)[O-])n1	8.75
Cc1c(NC(C)c2cc(Cl)ccc2O)c(=O)n(-c2ccccc2)n1C (centres unmarked)	-7.33
COc1cc(N=Nc2ccccc2C(=O)O)ccc1O	9.77
Cc1cc(C)cc(NC(=S)NC(=O)C2CC2)c1	11.7
COc1ccccc1NC(=O)N1CCCC1C(=O)Nc1ccc(NC(C)=O)cc1 (centres unmarked)	7.78
CCOC(=O)c1c(C)[nH]c(C(=O)COC(=O)/C=C/c2ccc(OCC#N)c(OC)c2)c1C	8.37
COCCCC1CCN(C(=O)C2CCC(=O)N(CCc3cccc(F)c3)C2)CC1 (centres unmarked)	8.4
COc1ccccc1-c1nnc(SCC(=O)NCc2c(C)c(Cl)cc(C(C)C)c2O)o1	9.09
O=C1CC(=O)C(n2cncn2)C(c2c(F)cccc2Cl)C1 (centres unmarked)	4.89
CSc1nc(N(C)NC(=O)c2ccc(F)cc2)c2ccccc2n1	10.5
CCc1cc2c(=O)nc3n(c2s1)Cc1ccccc1/C3=C(/O)c1cccc([N+](=O)[O-])c1	7.54
CC(=O)Nc1ccc(S(=O)(=O)NCCC(=O)Nc2cccc(Cl)c2)cc1	12.5
O=C(NC1CCCC1)c1cccc2c1C(=O)c1ccc(N3CCCCC3)cc1S2(=O)=O	8.97

Compound	hERG current change (%, negative = inhibition) at 1uM [%]
Cc1ccc(SCC(=O)OCC(=O)NC(C)c2ccc(Br)cc2)cc1 (centres unmarked)	2.96
CCC(=O)N(CCc1ccccc1)Cc1cc2cccc(C)c2[nH]c1=O	9.09
CCN(CC)c1ccc(/C=N\NC(=O)c2cccc3cc[nH]c23)cc1	14.4
C[C@]12CS(=O)(=O)C[C@H]1SC(=S)N2c1ccccc1	11.8
COc1ccc(NC(=O)c2cccc(S(=O)(=O)N3CCN(c4ccccc4)CC3)c2)c(OC)c1	3.11
Cc1cccc(C)c1OCC(=O)NNC(=O)CNC(=O)c1ccc(OC(F)F)cc1	1.85
CCCN(C(=O)c1ccc(N(C)S(=O)(=O)c2ccc(C)cc2)cc1)C1CCS(=O)(=O)C1 (centres unmarked)	14.8
Cc1csc(NC(=O)CSCC(=O)Nc2ccccc2)n1	9.76
CCOC(=O)c1ccc([N+](=O)[O-])c(CS(=O)(=O)c2ccc(Cl)cc2)c1	-0.371
Nc1nc2nonc2nc1N1CCCCC1	3.91
CCOc1ccc(C2NC(=O)c3ccccc3O2)cc1 (centres unmarked)	11.5
Cc1ccc(-n2nnnc2SCC(=O)c2ccc3c(c2)NC(=O)CO3)c(C)c1	12.6
CCOc1ccccc1CNC(=O)CNC(=O)c1cccs1	9.63
CCN1C(=O)C(CC(=O)NCc2ccc(Cl)cc2)N(CC)C1=O (centres unmarked)	4.86
CN1CCc2c(sc(/N=C/c3c[nH]c4ccccc34)c2C(N)=O)C1	5.96
CN1C(C(=O)Nc2ccccn2)=C(O)c2sc(Cl)cc2S1(=O)=O	14.2
Cc1cccc(NC(=O)c2cccc(Cn3cc(Br)c([N+](=O)[O-])n3)c2)c1C	8.71
COc1ccc(OCc2cc(C(=O)NC(C)c3csc(C)n3)no2)c(Cl)c1 (centres unmarked)	33.4
Cc1ccc(CNC(=O)c2ccc(N3CCC4(CC3)CC(c3ccccc3)=NO4)c(NC(=O)c3ccc(Cl)c([N+](=O)[O-])c3)c2)cc1	3.96
Cc1cc2c(cc1C)CSC(c1ccccc1OC(=O)C(C)(C)C)SC2	2.68
COc1ccccc1C(=O)NNC(=S)NC(=O)c1sc2ccccc2c1Cl	14.3
CCCOc1ccc(C(=O)c2ccccc2C(=O)OC2CCOC2=O)cc1OCCC (centres unmarked)	1.85
O=C(N/N=C/c1ccccc1OC(=O)c1ccc2c(c1)OCO2)c1ccccc1	14

Compound	hERG current change (%, negative = inhibition) at 1uM [%]
Cc1nc(SCC(=O)NCc2ccccc2)c2c(=O)n(C)c(=O)n(C)c2n1	-3.52
COc1ccc(-c2noc(-c3ccc4c(c3)OCO4)n2)cc1	4.11
O=C(NC1CCCCC1)c1cc([N+](=O)[O-])ccc1N1CCCCC1	-6.83
COc1ccc(S(=O)(=O)N2CCN(Cc3cc(OC)c(OC)cc3OC)CC2)cc1.O=C(O)C(=O)O	3.15
CC(OC(=O)c1ccc2ncsc2c1)C(=O)NC1CCCCC1C (centres unmarked)	11.2
C/C(=C/c1ccccc1)C(=O)N1CC(C)OC(C)C1 (centres unmarked)	8.36
N#CC1=C(N)Oc2c(oc(CO)cc2=O)C1c1cccs1 (centres unmarked)	14.5
COc1ccc(C2C(C(=O)NCc3ccccc3)=C(C)Nc3ncnn32)cc1OC (centres unmarked)	13.9
O=C1c2cccc3cccc(c23)C(=O)N1CCc1ccccc1	11.5
Cc1cc(C)n2nc(SCc3ncc(-c4ccccc4)o3)nc2n1	3.72
Brc1ccc(Oc2nsnc2N2CCOCC2)cc1	-4.39
CCNc1nc(NC(C)C)nc(NC(C)(C)C)n1	2.4
C=C1CCC[C@]2(C)C[C@H]3OC(=O)C(CNC(C)CCCC(C)C)[C@H]3CC12 (some centres unmarked)	9.74
O=C(Nc1c[nH]c(=O)[nH]c1=O)c1ccccc1Br	15
Cc1ccc(NC(=O)COCC(=O)Nc2ccc(F)cc2)cc1	11.3
C=CCOc1ccc(CNn2cn[nH]c2=S)cc1OC	7.1
Nc1nonc1-n1nnc(C(=O)N/N=C/c2ccc(O)cc2)c1CN1CCCCCC1	12.3
CC(C)(C)Nc1nc(NN)nc(NC(C)(C)C)n1	16.9
O=C1CCCN1Cc1ccccc1	15.7
COc1ccccc1CNS(=O)(=O)c1cc2c3c(c1)CCN3C(=O)CC2	5.58
CC(=O)Nc1ccc(N=NC2C(=O)N(C(N)=S)N=C2C)cc1 (centres unmarked)	9.74
O=C(c1ccccc1NS(=O)(=O)c1cccc([N+](=O)[O-])c1)N1CCCC1	7.15
CCCN(C(=O)c1ccc([N+](=O)[O-])c(C)c1)c1c(N)n(Cc2ccccc2)c(=O)[nH]c1=O	1.67

Compound	hERG current change (%, negative = inhibition) at 1uM [%]
O=C(Cc1ccc(-c2ccccc2)cc1)Nc1ccccc1	16
CCn1c(=O)n(CC)c2cc(N3CCCC3)c(NC(=O)c3ccc(OC)c(Br)c3)cc21	17.5
Cc1[nH]cnc1CSCc1ccc(F)cc1.Cl	-1.44
Cc1sc2nc(CSCC(=O)NC3CCCCC3)[nH]c(=O)c2c1C	2.64
CCCCN1C(N)=NC[C@@H]1c1ccccc1	7.96
CCCCn1c(N)c(N(CC)C(=O)C2CCCC2)c(=O)[nH]c1=O	5.09
O=C(Oc1ccccc1)N1CCOCC1	18.9
O=C(COC(=O)c1ccc(O)cc1)NCc1ccc2c(c1)OCO2	5.5
CCCn1c(=O)c2ccccc2n2c(SCc3nc4ccccc4s3)nnc12	6.05
CCCNC(=O)C(Cc1ccccc1)NC(=O)Cc1ccccc1 (centres unmarked)	15.3
O=C1C=C(c2cc(F)ccc2F)C[C@@H](c2ccc(Cl)cc2)C1	9.97
COc1ccccc1C(=O)Nc1cc(Cl)ccc1-n1cncn1	8.54
O=S(=O)(c1cccc2nsnc12)N1CCCCC1	-1.05
CC(C)Cc1cc(C(=O)N2CCCC(CCC(=O)N(C)CCc3ccccn3)C2)no1 (centres unmarked)	7.62
O=C(O)CCN1C(=O)c2ccc(Oc3ccc([N+](=O)[O-])cc3)cc2C1=O	14.2
O=C(O)C1CCC(=O)N1C(=O)OCc1ccccc1 (centres unmarked)	11.7
Cc1ccc(Cn2ncc3c(N4CCN(Cc5ccc(Cl)cc5)CC4)ncnc32)cc1	0.667
CCOC(=O)N1CCN(c2ncnc3c2oc2nc(C(C)C)c4c(c23)CCC4)CC1	6.16
Cc1ccc2cc(CCNS(=O)(=O)c3ccc(Br)cc3)c(=O)[nH]c2c1C	4.24
CCN(CC(=O)Nc1cc(C)on1)CC(=O)Nc1ccccc1C(F)(F)F	9.71
